The results in this text go back to paper PMC4336329 (PLoS ONE, 2015).

Hit rate of the full screen: of about 310,000 compounds, about 2,200 (0.71%) showed an effect of 50% or more. Effects have a minus sign here. The list shows a part of the results.

For the experiment, the target named is human ether-à-go-go-related gene (hERG) potassium channel (human, UniProt Q12809). Put plainly: primary screen, population patch clamp on CHO cells stably expressing hERG.
Chain of human ether-à-go-go-related gene (hERG) potassium channel (Q12809 whole entry, looked up): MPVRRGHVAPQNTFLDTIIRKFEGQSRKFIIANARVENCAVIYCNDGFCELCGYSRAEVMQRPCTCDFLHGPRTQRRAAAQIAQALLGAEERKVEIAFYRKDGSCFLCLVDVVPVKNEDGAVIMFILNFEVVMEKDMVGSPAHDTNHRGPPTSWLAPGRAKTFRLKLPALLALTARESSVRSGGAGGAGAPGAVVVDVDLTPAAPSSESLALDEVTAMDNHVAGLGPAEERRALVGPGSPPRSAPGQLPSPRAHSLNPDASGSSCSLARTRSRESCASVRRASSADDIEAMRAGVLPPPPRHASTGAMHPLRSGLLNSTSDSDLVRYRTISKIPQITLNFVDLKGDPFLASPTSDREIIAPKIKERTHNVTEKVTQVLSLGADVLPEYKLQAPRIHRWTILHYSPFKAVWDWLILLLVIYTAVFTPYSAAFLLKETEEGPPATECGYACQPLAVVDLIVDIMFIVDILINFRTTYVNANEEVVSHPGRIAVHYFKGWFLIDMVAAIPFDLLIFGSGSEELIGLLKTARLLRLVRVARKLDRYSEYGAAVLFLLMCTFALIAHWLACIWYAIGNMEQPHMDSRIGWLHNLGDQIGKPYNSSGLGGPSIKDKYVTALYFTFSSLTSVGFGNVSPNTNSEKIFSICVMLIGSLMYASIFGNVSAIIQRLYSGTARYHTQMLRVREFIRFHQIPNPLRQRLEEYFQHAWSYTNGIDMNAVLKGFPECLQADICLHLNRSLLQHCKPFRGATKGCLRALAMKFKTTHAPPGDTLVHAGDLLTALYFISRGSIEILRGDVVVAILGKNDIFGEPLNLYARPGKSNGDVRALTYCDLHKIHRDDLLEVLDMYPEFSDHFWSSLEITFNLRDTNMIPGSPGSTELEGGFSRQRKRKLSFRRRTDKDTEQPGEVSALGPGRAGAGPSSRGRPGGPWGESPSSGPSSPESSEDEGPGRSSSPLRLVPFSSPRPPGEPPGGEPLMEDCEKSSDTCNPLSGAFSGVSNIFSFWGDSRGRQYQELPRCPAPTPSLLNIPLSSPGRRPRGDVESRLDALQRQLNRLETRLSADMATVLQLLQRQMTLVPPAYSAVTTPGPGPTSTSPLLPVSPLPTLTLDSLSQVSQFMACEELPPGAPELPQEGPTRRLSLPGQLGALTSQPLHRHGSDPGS
On to `Cc1cc(C)cc(-n2nnc(C(=O)NCc3ccc(Cl)cc3)c2N)c1`, for which the “hERG current change (%, negative = inhibition) at 1uM” value was 6.06%.
For the molecule `CCc1nc2oc3ccccc3c(=O)c2c(=O)n1Cc1ccc(OC)cc1`, the “hERG current change (%, negative = inhibition) at 1uM” value was -6.12%.
In the case of `COc1ccc(C(CNC(=O)C2COc3ccccc3O2)N2CCCC2)cc1` (stereo not shown) it was -0.312%; in that of `O=C(Cc1ccc(Cl)cc1)N/N=C/c1ccccc1`, 17.2%; in that of `O=C(COC(=O)/C=C/c1cccc(F)c1)Nc1ccc2[nH]c(=O)[nH]c2c1`, 14.8%.
In the case of `N#CCCN(C(=O)COC(=O)C1CCN(S(=O)(=O)c2cccs2)CC1)c1ccccc1` it was -1.47%; in that of `Cc1ccc(S(=O)(=O)Nc2nnc(CC(C)(C)C)s2)cc1`, -0.457%; in that of `CC(C)Oc1ccc(C(=O)NNC(=O)c2ccccc2C(=O)O)cc1`, 7.89%.
Consider `CNc1c(NS(=O)(=O)c2cc(NC(C)=O)ccc2C)c(=O)oc2ccccc12`, for which the “hERG current change (%, negative = inhibition) at 1uM” value worked out at 12.4%.
In the case of `CS(=O)(=O)N(CC(=O)NC1CC1)C1CCCCC1` it was 11.6%; in that of `Cc1cc(-c2n[nH]c(=S)n2/N=C/c2ccc(Br)s2)n[nH]1`, 19.4%; in that of `COc1ccc(OCc2cc(C(=O)NCC3CCOCC3)no2)c(Cl)c1`, 23.8%.
In the case of `Cn1c(CNC(=O)Cc2ccc3c(c2)OCO3)nnc1SCc1ccccc1` it was 9.16%; in that of `N#CC(c1ccc(Cl)cc1)c1ncc(C(F)(F)F)cc1Cl` (stereo not shown), 10.5%; in that of `CCn1c(SCC(=O)N(C)C2CCCCC2)nc2cc(S(N)(=O)=O)ccc21`, 5.03%.
Turning to `O=C(Cc1ncn[nH]1)NCCc1ccccc1`, the “hERG current change (%, negative = inhibition) at 1uM” value stood at 4.38%.
For `Cc1cc(C)cc(NC(=O)COC(=O)COc2cccc3c2OC(C)(C)C3)c1`, the “hERG current change (%, negative = inhibition) at 1uM” value is on record as 10.1%.
On to `Nc1c(C(=O)NCc2ccc3c(c2)OCO3)c2nc3ccccc3nc2n1CCCN1CCOCC1`, for which the “hERG current change (%, negative = inhibition) at 1uM” value is on record as 8.36%.
In the case of `Cc1ccc(C(=O)N2CCc3ccccc32)cc1NC(=O)c1ccco1` it was -11.8%.
In the case of `Cc1cc(C)cc(NC(=S)NCCCO)c1` it was 3.99%.
In the case of `COc1cc2c(=O)n(Cc3ccccc3)c(=O)n(CC(=O)NCC3CCCO3)c2cc1OC` (stereo not shown) it was -14.4%; in that of `O=C(Cc1cccs1)N1CCC(c2nc3c(nnn3Cc3ccc(F)cc3)c(=O)[nH]2)CC1`, 7.18%.
Consider `O=C(CNc1ccc(Br)cc1)c1ccc(Br)s1`, for which the “hERG current change (%, negative = inhibition) at 1uM” value worked out at 12.9%.
As for `O=C(c1cc(-c2ccccn2)nc2ccccc12)N1CCN(c2ncccn2)CC1`, the “hERG current change (%, negative = inhibition) at 1uM” value was -8.44%.
In the case of `CC(C)(C#N)NC(=O)C(=O)c1c(-c2ccccc2)cc2ccccn12` it was 1.84%.
